Experimental data as given in the supplement of paper PMC8183993.
“And” between values parts separate entries of the source, which are not always exact repeats. Equal entries are not always repeated. Structures can show the parent of a compound that is named as a salt. ± gives the standard deviation of the averaged measurements. Whole data set: some 3,100 compounds, median “mean cytoplasmic OPP incorporation (global translation) relative to DMSO” near 100, cut for the lowest 2% near 56. The list shows a part of the results.

tested on: U2OS; test: mean cytoplasmic OPP incorporation (global translation) relative to DMSO (% of DMSO); higher = more protein synthesis; settings: 10 µM; 24 h
Experimental: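 Primary image-based screen in U2OS cells: compounds at 10 uM for 24 h, then a 1 h o-propargyl-puromycin (OPP) pulse, click labelling, and high-throughput microscopy. Mean cytoplasmic OPP intensity and nuclei count were normalised to DMSO wells within each plate (DMSO = 100) and averaged over triplicate plates.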

SMILES	mean cytoplasmic OPP incorporation
Cc1ccc(NC(=O)c2cccc(N(C)C)c2)cc1NC(=O)c1ccc(O)cc1	102.6 ± 0.94
O=C1NCCc2[nH]c(-c3ccncc3)cc21	49.9 ± 13
CC[C@H]1OC(=O)C[C@@H](O)[C@H](C)[C@@H](O[C@@H]2O[C@H](C)[C@@H](O[C@H]3C[C@@](C)(O)[C@@H](O)[C@H](C)O3)[C@H](N(C)C)[C@H]2O)[C@@H](CC=O)C[C@@H](C)C(=O)/C=C/C(C)=C/[C@@H]1CO[C@@H]1O[C@H](C)[C@@H](O)[C@@H](OC)[C@H]1OC [Tylosin]	107
CC[C@H]1OC(=O)C[C@@H](O)[C@H](C)[C@@H](O[C@@H]2O[C@H](C)[C@@H](O[C@H]3C[C@@](C)(O)[C@@H](O)[C@H](C)O3)[C@H](N(C)C)[C@H]2O)[C@@H](CC=O)C[C@@H](C)C(=O)/C=C/C(C)=C/[C@@H]1CO[C@@H]1O[C@H](C)[C@@H](O)[C@@H](OC)[C@H]1OC [Tylosin tartrate]	99.3
O=C(/C=C/c1ccc(O)c(O)c1)c1ccc(O)cc1O [Butein]	99.1 ± 3.7
COC(=O)C1=C(C)NC(C)=C([N+](=O)[O-])C1c1ccccc1C(F)(F)F (racemic)	114
CCc1ccc2c(-c3cccc(Cl)c3)nc(=O)n(CC)c2n1	106
O=C(CCCCCCC(=O)Nc1ccccc1)NO [Vorinostat]	41.9
O=c1cc(-c2ccccc2)oc2cc(O)cc(O)c12 [Chrysin]	90.1
Nc1c2c(nc3ccccc13)CCCC2 [Tacrine hydrochloride]	91.34 ± 0.2
O=c1sn(-c2cccc3ccccc23)c(=O)n1Cc1ccccc1 [Tideglusib]	101
C/C(=C(\CCOP(=O)(O)O)SC(=O)c1ccccc1)N(C=O)Cc1cnc(C)nc1N [Benfotiamine]	105
COc1cc2/c(=N/c3ccc(Br)cc3F)nc[nH]c2cc1OCC1CCN(C)CC1 [Vandetanib (Zactima)]	106
Cc1cc(OCCCS(C)(=O)=O)cc(C)c1-c1cccc(COc2ccc3c(c2)OC[C@H]3CC(=O)O)c1	102
CCN(CC)C(=S)SSC(=S)N(CC)CC [Disulfiram]	107 ± 8.5
O=C(CCCCCN1C(=O)c2cccc3cccc(c23)C1=O)NO [Scriptaid]	75.9 ± 12
CCN(CC)CCOC(=O)C(Cc1cccc2ccccc12)CC1CCCO1 (centres undefined) [Nafronyl oxalate]	111
CC(C)NCC(O)COc1ccc(COCCOC(C)C)cc1 (racemic) [Bisoprolol fumarate]	101
CC(C)NCC(O)COc1ccc(COCCOC(C)C)cc1 (racemic) [(±)-Bisoprolol hemifumarate]	98.4
NC(=O)N1C(=O)/C(=C(\O)c2cccs2)c2cc(Cl)ccc21 [Tenidap]	117
COc1ccc(-c2nc(-c3ccc(-c4cccc(Cl)c4)o3)[nH]c2-c2ccc(OC)cc2)cc1 [Neurodazine]	109

SMILES	mean cytoplasmic OPP incorporation
CC1(C)S[C@@H]2[C@H](NC(=O)C(C(=O)O)c3ccccc3)C(=O)N2[C@H]1C(=O)O (some centres undefined) [Carbenicillin disodium]	98.4
C[C@H](N)[C@H](O)c1cccc(O)c1 [Metaraminol bitartrate]	94.8
Cc1ccccc1OCC(O)CO (centres undefined) [Mephenesin]	98.7
CS(=O)(=O)c1ccc(-c2cc(Br)sc2-c2ccc(F)cc2)cc1	98.9
O=C1CN(/N=C/c2ccc([N+](=O)[O-])o2)C(=O)N1 [Nitrofurantoin]	98.6
CC(C)N(CCCNC(=O)Nc1ccc(C(C)(C)C)cc1)C[C@H]1O[C@@H](n2cc(Br)c3c(N)ncnc32)[C@H](O)[C@@H]1O	111
S=c1ccss1 [1,2-Dithiole-3-thione]	115
Cc1nc2sccn2c(=O)c1CCN1CCC(=C(c2ccccc2)c2ccc(F)cc2)CC1	106
CC(C)=CCC/C(C)=C/CC/C(C)=C/CO [Farnesol]	103
O=C1Nc2ccc([N+](=O)[O-])cc2C1=O [5-Nitroisatin]	104
Cc1cc(NS(=O)(=O)c2ccc(N)cc2)no1 [Sulfamethoxazole]	102
CN[C@@H]1[C@@H](O)[C@@H](O[C@@H]2[C@@H](O)[C@H](O[C@H]3OC(CN)=CC[C@H]3N)[C@@H](N)C[C@H]2N)OC[C@]1(C)O [Sisomicin sulfate]	99.5
CC1(C)S[C@@H]2[C@H](NC(=O)[C@H](C(=O)O)c3ccsc3)C(=O)N2[C@H]1C(=O)O [Ticarcillin sodium]	105
CCOC(=O)n1ccn(C)c1=S [Carbimazole]	97.7
CC(C)[C@H]1c2ccc(F)cc2CC[C@@]1(CCN(C)CCCc1nc2ccccc2[nH]1)OC(=O)C1CC1 [NNC 55-0396 dihydrochloride]	55.5
COc1cc(O)c2c(c1)C(=O)c1cc(C)cc(O)c1C2=O [Rheochrysidin (Physcione)]	98
COc1cc(N2CCC(N)CC2)ccc1Nc1ncc(Cl)c(-c2c[nH]c3ccccc23)n1	36.5
O=C1CN(/N=C/c2ccc(-c3ccc([N+](=O)[O-])cc3)o2)C(=O)N1 [Dantrolene, sodium salt]	106
O=C1CN(/N=C/c2ccc(-c3ccc([N+](=O)[O-])cc3)o2)C(=O)N1 [Dantrolene sodium salt]	86
O=C1CN(/N=C/c2ccc(-c3ccc([N+](=O)[O-])cc3)o2)C(=O)N1 [Dantrolene]	97.5
Nc1[nH]nc2nnc(-c3c(-c4ccccc4)nn4ccccc34)cc12	82.7

SMILES	mean cytoplasmic OPP incorporation
COc1ccc(/C=C\c2cc(OC)c(OC)c(OC)c2)cc1O [Combretastatin A4]	85.9
CCCC1O[C@@H]2C[C@H]3[C@@H]4CCC5=CC(=O)C=C[C@]5(C)[C@H]4[C@@H](O)C[C@]3(C)[C@]2(C(=O)CO)O1 (some centres undefined) [Budesonide]	110 ± 2.8
COc1cc(C(C)=O)ccc1OCCCN1CCC(c2noc3cc(F)ccc23)CC1 [Iloperidone (Fanapt)]	110
CCOC(=O)[C@H](CCc1ccccc1)N[C@H]1CCCN2CCC[C@@H](C(=O)O)N2C1=O [Cilazapril monohydrate (Inhibace)]	97
COC(=O)c1c(C)[nH]c(C)c1C(=O)c1ccccc1Cc1ccccc1	106 and 102
CC(C)n1nnc2cc(C(=O)O)ccc21	98
CC(C1=C(CCN(C)C)Cc2ccccc21)c1ccccn1 (stereo in doubt) [(S)-(+)-Dimethindene maleate]	99.1
O=C(O)Cc1ccc(OCCNC[C@H](O)c2ccccc2)cc1 [ZD 2079 hydrochloride]	103
CC(C(=O)O)c1cccc(C(=O)c2ccccc2)c1 (centres undefined) [Ketoprofen]	104
COC(=O)N[C@H](C(=O)N1CCC[C@H]1c1ncc(-c2ccc(-c3ccc(-c4cnc([C@@H]5CCCN5C(=O)[C@@H](NC(=O)OC)C(C)C)[nH]4)cc3)cc2)[nH]1)C(C)C	110
CC1=C(/C=C/C(C)=C/C=C/C(C)=C/C=C/C=C(C)/C=C/C=C(C)/C=C/C2=C(C)C(=O)CCC2(C)C)C(C)(C)CCC1=O [Canthaxanthin]	111
Cc1cc(C)c2c(c1)[C@@H](N(Cc1cc(C(F)(F)F)cc(C(F)(F)F)c1)c1nnn(C)n1)CCCN2C[C@H]1CC[C@H](C(=O)O)CC1	109
CNC(=O)c1ccccc1Nc1nc(Nc2ccc(N3CCOCC3)cc2OC)ncc1Cl	90.7 ± 4.2
CC1=C(C(=O)Nc2cc3cn[nH]c3cc2F)C(c2ccc(C(F)(F)F)cc2)CC(=O)N1 (centres undefined)	104 ± 4.6
CCOC(=O)c1ncn2c1CN(C)C(=O)c1cc(F)ccc1-2 [Flumazenil]	103
COc1cc(/C=C/c2ccc(O)cc2)cc(OC)c1 [Pterostilbene]	95.8
NCC(O)(CS(=O)(=O)O)c1ccc(Cl)cc1 (centres undefined) [2-Hydroxysaclofen]	105
CC[C@H](NC(=O)c1c(C)c(-c2ccccc2)nc2ccccc12)c1ccccc1	105
CCOc1cc(CC(=O)N[C@@H](CC(C)C)c2ccccc2N2CCCCC2)ccc1C(=O)O [Repaglinide]	110.1 ± 0.62
O=C(O)C(Cc1c[nH]c2ccccc12)N1C(=O)c2ccccc2C1=O (centres undefined)	104
CCOC(=O)C1=C(C)NC(C)=C(C(=O)OCC)C1c1ccccc1/C=C/C(=O)OC(C)(C)C [Lacidipine]	106

SMILES	mean cytoplasmic OPP incorporation
C[C@H](NC[C@H](O)CP(=O)(O)CC1CCCCC1)c1ccc(Cl)c(Cl)c1	97.4
O=S(=O)(c1ccccc1)N(CC(F)(F)F)c1ccc(C(O)(C(F)(F)F)C(F)(F)F)cc1	98.7
CCCCN(CCCC)CCC(O)c1cc2c(Cl)cc(Cl)cc2c2cc(C(F)(F)F)ccc12 (centres undefined) [Halofantrine hydrochloride]	120
C#C[C@]1(O)CC[C@H]2[C@@H]3CCc4cc(O)ccc4[C@H]3CC[C@@]21C [Ethinyl Estradiol]	96.8
C#C[C@]1(O)CC[C@H]2[C@@H]3CCc4cc(O)ccc4[C@H]3CC[C@@]21C [Ethinylestradiol]	90.1
COc1cc(F)c(F)c(Nc2ccc(I)cc2F)c1NS(=O)(=O)C1(C[C@H](O)CO)CC1 [Refametinib (RDEA119, Bay 86-9766)]	93.1
Oc1ccc(-c2c(-c3ccccc3)nn3c(C(F)(F)F)cc(C(F)(F)F)nc23)cc1	103
CCCCCN(CCCCC)C(=O)C(CCC(=O)O)NC(=O)c1ccc(Cl)c(Cl)c1 (centres undefined) [Lorglumide sodium salt]	98.9
Cc1cc(N2CCOCC2)cc2[nH]c(-c3c(NC[C@@H](O)c4cccc(Cl)c4)cc[nH]c3=O)nc12	100
CC(C)(C)NC(=O)[C@@H]1C[C@@H]2CCCC[C@@H]2CN1C[C@@H](O)[C@H](Cc1ccccc1)NC(=O)[C@H](CC(N)=O)NC(=O)c1ccc2ccccc2n1 [Saquinavir mesylate]	116
COc1ccc2[nH]c([S@@+]([O-])Cc3ncc(C)c(OC)c3C)nc2c1 [Esomeprazole magnesium (Nexium)]	95.5
CS(=O)(=O)N1CCN(Cc2cc3nc(-c4cccc5[nH]ncc45)nc(N4CCOCC4)c3s2)CC1 [Pictilisib (GDC-0941)]	73.8
CC(C)NCC(O)c1ccc(O)c(O)c1 (centres undefined) [Isoproterenol hydrochloride]	96.3
Nc1nc2c(ncn2COCCO)c(=O)[nH]1 [Acyclovir]	99 ± 3.6
Cc1ccccc1C(=O)c1ccc(Nc2ccc(Br)cc2N)cc1Cl	98.5
CC(=O)OCC(=O)[C@@]1(O)[C@H](C)C[C@H]2[C@@H]3CCC4=CC(=O)C=C[C@]4(C)[C@@]3(F)[C@@H](O)C[C@@]21C [Dexamethasone acetate]	100 ± 2.4
COc1ncnc(NS(=O)(=O)c2ccc(N)cc2)c1OC [Sulfadoxine]	109
c1ccc(C(O[C@@H]2CCCN(CCc3ccc4c(c3)OCO4)C2)c2ccccc2)cc1 [Zamifenacin fumarate]	107
COc1ccc(C(=O)c2ccccc2)c(O)c1 [Oxybenzone]	101
COc1c(N2C[C@@H]3CCCN[C@@H]3C2)c(F)cc2c(=O)c(C(=O)O)cn(C3CC3)c12 [Moxifloxacin]	104
CC1(C)CCC[C@]2(C)[C@H]3CC(=O)O[C@]3(C)CC[C@@H]12 [Sclareolide (Norambreinolide)]	104
